Screen size: about 44,000 compounds; about 340 (0.77%) were called active. About 5% were inconclusive and are not listed. Calls come from the whole dose curve; as a rule, active = well fitted inhibition curve with a large enough effect; inconclusive = small, poorly fitted or top-dose-only effect; inactive = flat fitted curve, though single readings scatter. Some of the results follow.
Assay: Acumen qHTS Assay for Inhibitors of the mTORC1 Signaling Pathway in MEF (Tsc2-/-, p53-/-) Cells: Sytravon;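 note: plate controls were DMSO for no effect and rapamycin for full effect; nearly all actives have a fitted effect of over 50% in size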
Conditions: phospho-rpS6 immunofluorescence/PI, 24 h; series mostly up to 38.3 µM; activity change, negative = inhibition: at the top concentration
In short: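 Immunofluorescence of rpS6 phosphorylation in Tsc2-/-, p53-/- MEFs after 24 h compound exposure, normalized to propidium iodide signal. Activity is expressed as % positive cells, thresholded with 7.5 nM rapamycin.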

Activity change, negative = inhibition, inactive:
Cc1sc2c(c1C)c(=O)n(CCc1ccccc1)c(=O)n2Cc1ccccc1Cl -1.69%, Cc1ccc(C)c(NC(=O)CSc2nc(=O)n(CCN(C)C)c3c2CCC3)c1 1.67%, COc1cc(CN(C(=O)c2ccccc2[N+](=O)[O-])c2ccccn2)cc(OC)c1OC -21.1%, CCn1c(=O)c2cc(C(=O)N3CCN(c4cccc(Cl)c4)CC3)sc2c2ccccc21 -10.9%, CCN(CC)S(=O)(=O)c1ccc2c(c1)nc(CN(C)C(=O)c1cccc(Cl)c1)n2C 5.95%, COc1ccc(CCNC(=O)C2=C(C)C(=O)OC23CCCCC3)c(OC)c1OC -6.92%, CC1CCN(S(=O)(=O)c2ccc3c(c2)N(CC(=O)NCCCN2CCCCC2C)C(=O)CS3)CC1 (configuration not stated) 10.3%, N#Cc1ccccc1NC(=O)c1cc2c(=O)n3ccccc3nc2s1 -13.1%, COc1ccc(OC)c(CNC(=O)C2CCN(S(=O)(=O)c3cn(C)cn3)CC2)c1 -6.97%, COc1cc(Cl)c(C)cc1NC(=O)c1cc(CN2CCOCC2)on1 -11.3%, Cc1cc(NC(=O)c2ccc3c(c2)N(Cc2cccc(Cl)c2)C(=O)c2ccccc2S3=O)ccc1Br (configuration not stated) 0.218%, CCc1ccc(NC(=O)CCS(=O)(=O)c2ccc3c(c2)CCN3C(C)=O)cc1 1.32%, CC1CCCN(Cc2c(O)ccc3c(=O)c(Oc4ccccc4Cl)c(C(F)(F)F)oc23)C1 (configuration not stated) 2.23%, Cc1ccc(S(=O)(=O)c2cn(Cc3ccccc3F)c3cc4c(cc3c2=O)OCO4)cc1 -20.2%, CCC1CN(S(=O)(=O)c2cc(-c3cc(C)no3)ccc2OC)c2cc(C)ccc2O1 (configuration not stated) -8.09%, COc1ccc(C(=O)N(Cc2sccc2C)C2CCS(=O)(=O)C2)cc1Cl (configuration not stated) 0%, Cc1cc(C)c(S(=O)(=O)Nc2cc(-c3cn4ccccc4n3)ccc2C)cc1C 2.63%, CCN1CCN(C(=O)c2ccc3c(c2)N(Cc2ccc(Cl)cc2)C(=O)c2ccccc2S3(=O)=O)CC1 -14.7%, Cc1cc(=O)n2c(C(=O)Nc3ccc(C)c(Cl)c3)c(C(=O)Nc3ccccc3)sc2n1 4.43%, Cc1cccc(N2CCN(C(=O)C3CCN(S(=O)(=O)c4c(C)noc4/C=C/c4ccccc4F)CC3)CC2)c1C -1.67%, O=C(Cn1ncc2c([nH]c3ccccc32)c1=O)Nc1cc(F)ccc1F 6.15%, Cc1ccc(C(=O)c2sc(Nc3ccccc3F)c(S(=O)(=O)c3ccccc3)c2N)c(C)c1 -10.1%, O=C(NCc1ccc2c(c1)OCO2)c1ccc2c(c1)N(Cc1cccc(Cl)c1)C(=O)c1ccccc1S2 9.03%, O=C(Nc1nnc(S(=O)(=O)N2CCCCCC2)s1)c1ccc(Br)cc1 -9.5%, COc1c(Cl)cc(C(=O)Nc2cccc(-c3nc4ccccc4[nH]3)c2)cc1Cl 4.56%, CC(=O)c1ccc(NC2=NS(=O)(=O)c3ccccc32)cc1 -18.8%, O=C(NCc1ccc(F)cc1)c1ccc(CSc2nc3ccncc3n2Cc2ccc(F)cc2)cc1 2.16%, Cc1cc(C)c(Cn2c3ccccc3c3cnn(CC(=O)NCCc4ccccc4)c(=O)c32)c(C)c1 -6.56%, CCc1cccc(C)c1NS(=O)(=O)c1c(C(=O)N2CCCCCC2)c(C)n(C)c1C -7.21%, Cc1ccc(Cl)cc1N1CCN(C(=O)CN2C(=O)COc3ccc(S(=O)(=O)N4CCOCC4)cc32)CC1 0.477%, COc1ccc(Cl)cc1NC(=O)Cn1nnc2sc3c(c2c1=O)CCC(C(C)(C)C)C3 (configuration not stated) -0.249%, CCOC(=O)c1c(Nc2cccc(O)c2)nnc(-c2ccccc2)c1-c1ccccc1 -1.41%, Cc1ccc(NC(=O)Cn2cc(S(=O)(=O)c3ccc(F)cc3)c(=O)c3cc4c(cc32)OCO4)cc1 -11.8%, Cc1ccc(NC(=O)CSc2nccn2C2CCCC2)cc1 -4.76%, O=C(CSc1nc2ccccc2nc1Cc1ccc(F)cc1)Nc1ccc2c(c1)OCO2 3.03%, COCCNC(=O)Cn1c(=O)n(Cc2ccc(C(=O)NCCc3ccc(OC)c(OC)c3)cc2)c(=O)c2ccccc21 -25.8%, COc1cc(Cl)c(C)cc1NC(=O)CCCN1C(=O)C(c2ccccc2)Oc2cccnc21 (configuration not stated) -11%, COc1ccc(-n2c3c(c(=O)[nH]c2=O)C(NC(C)=O)(C(F)(F)F)C(=O)N3)cc1 (configuration not stated) -22.8%, Cc1cccc(Oc2nc3ccccn3c(=O)c2/C=C(\C#N)c2nc3ccccc3s2)c1C -9.13%, COc1ccc(NC(=O)C2CCCN(S(=O)(=O)c3cn(C)cn3)C2)cc1Cl (configuration not stated) 4.69%, CCOc1ccccc1C1CC(=O)NC(C)=C1C(=O)OC1CCCCCC1 (configuration not stated) -4.54%, COc1ccc(CCNC(=O)c2ccc3c(c2)CCN3S(=O)(=O)c2ccc(Cl)cc2)cc1 -7.04%, COc1ccc(OC)c(NC(=O)c2ccc(-c3nc(CSc4ccccc4)c(C)o3)cc2)c1 -0.507%, CC(C)(C)C(=O)Cn1c(=O)n(CCCCCC(=O)NCc2ccc3c(c2)OCO3)c(=O)c2sccc21 1.96%, COc1ccccc1CCNC(=O)c1ccc(NC(=O)N2CC(C)Sc3ccccc32)cc1 (configuration not stated) -8.7%, CCCCn1cc(S(=O)(=O)c2ccc(CC)cc2)c(=O)c2cc(F)c(N3CCCC(C)C3)cc21 (configuration not stated) -0.606%, Cc1ccc(C(=O)CSc2nc3cc(C(=O)NC4CCCC4)ccc3c(=O)n2CC2CCCO2)cc1 (configuration not stated) 6.34%, CSc1cccc(NS(=O)(=O)c2ccc3[nH]cc(C(=O)N4CCCC4)c(=O)c3c2)c1 3.48%, Cn1c(=O)n(C)c2cc(N3CCCCC3)c(NC(=O)c3ccc(Cl)cc3)cc21 -8.05%, COc1cc(OC)c(NC(=O)c2c(C)nn(-c3ccc(C)cc3)c2-n2cccc2)cc1Cl 1.94%, COc1ccc(C(=O)NCCn2cc(SCC(=O)Nc3ccccc3)c3ccccc32)cc1OC 4.1%, Cc1cc(C)cc(NC(=O)C2CCCN2S(=O)(=O)c2ccc3c(c2)C(C)(C)C(=O)N3C)c1 (configuration not stated) -1.14%, CCOC(=O)c1ccc(NC(=O)c2ccc3c(c2)c(C)c(C)n3Cc2ccc(F)cc2)cc1 0%, CCOC(=O)C1(C)C=C(Nc2ccc(OC)cc2)C(=O)N1c1ccccc1 (configuration not stated) -16.9%, Cc1cc(C)c(Cn2c3ccccc3c3cnn(CC(=O)NC4CCCCCC4)c(=O)c32)c(C)c1 0.46%, COc1ccc(Cn2cc(C(=O)c3ccc(Cl)cc3)c(=O)c3cc4c(cc32)OCO4)cc1 -2.64%, COC(=O)c1cc2oc3ccccc3c2n1Cc1nc(-c2cccc(Cl)c2)oc1C -11.8%
